Source: PubChem BioAssay AID485344 (National Center for Advancing Translational Sciences (NCATS), 2010)
Among all 340,000 compounds or so, about 6,900 (2%) were called active. Rule as the data show it: active = inhibition above about 30%; inactive = below that, where a call was filed. The list shows a part of the results, in another mix than the full data. Entries without a call were filed so in the source.

Each molecule was assayed against D(2) dopamine receptor (Homo sapiens) (UniProt P14416) (assay: HTS Assay for Allosteric Antagonists of the Human D2 Dopamine Receptor: Primary Screen for Antagonists). Conditions: HEK293 TREx D2 cells, calcium flux, dopamine EC80; at 10 µM; stronger effect = higher value.
How it was run: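 Overnight-induced (tetracycline, 30 C) HEK293 T-REx cells carrying force-coupled D2 receive a no-wash calcium dye, then compound, then EC80 dopamine at 180 s; signals are read kinetically throughout.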
Also: 0% is about no effect.

UniProt P14416, sequence (P14416 whole entry, looked up): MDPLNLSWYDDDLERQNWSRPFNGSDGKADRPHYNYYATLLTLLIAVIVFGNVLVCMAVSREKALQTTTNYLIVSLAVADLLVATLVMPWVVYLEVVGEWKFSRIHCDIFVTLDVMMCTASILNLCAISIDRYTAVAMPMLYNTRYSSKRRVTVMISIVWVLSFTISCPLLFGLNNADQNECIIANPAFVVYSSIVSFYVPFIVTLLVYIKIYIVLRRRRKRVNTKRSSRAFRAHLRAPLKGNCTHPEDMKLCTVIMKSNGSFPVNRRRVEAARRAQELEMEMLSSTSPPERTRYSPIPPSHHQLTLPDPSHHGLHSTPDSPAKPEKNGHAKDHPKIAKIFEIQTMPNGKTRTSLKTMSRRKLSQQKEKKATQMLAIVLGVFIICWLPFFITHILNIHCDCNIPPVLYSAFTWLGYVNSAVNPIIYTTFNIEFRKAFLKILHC

For `O=C(CCCC(=O)OCC(=O)c1ccc(F)cc1)Nc1cc(C(F)(F)F)ccc1Cl`, the inhibition was active: 46.9%.
For `Cc1ccc(C(=O)N/C(N)=N/c2nc3ccccc3o2)cc1`, the inhibition was active: 53%.
For `C=CCN(CC=C)CCOc1ccc(C)cc1[N+](=O)[O-]`, the inhibition was active: 38.3%.
For `COc1ccc(C(C)(C)C)cc1NC(=O)CCc1c(C)noc1C`, the inhibition was active: 63.4%.
In the case of `O=C(O)CN1C(=O)COc2cc(S(=O)(=O)N3CCCC3)ccc21`, the inhibition is reported as active: 30.8%.
With `COc1ccc(C(=O)NCC(=O)N/N=C/c2c(C)[nH]c3ccccc23)cc1` the inhibition was active: 52.7%.
`O=c1cc(-c2ccc([N+](=O)[O-])cc2)nc2cc(-c3ccc(Cl)cc3)[nH]n12` was tested, and the inhibition was active: 35.5%.
In the case of `O=C(CCc1nc2ccccc2c(=O)[nH]1)Nc1ccc(N2CCCCC2)cc1`, the inhibition is reported as active: 76.7%.
For `CC(C)Cn1c(CCCNC(=O)c2ccc(F)cc2)nc2ccccc21`, the inhibition was active: 30.9%.
For `COC(=O)c1ccc([N+](=O)[O-])cc1N1C(=O)C2C3CCC(C3)C2C1=O` (centres undefined), the inhibition was active: 52.7%.
In the case of `CC(=O)Nc1ccc(S(=O)(=O)N2CCN(CC(=O)N3CCOCC3)CC2)cc1`, the inhibition is reported as active: 37.4%.
In the case of `Cc1ccc2oc(=O)cc(CN3CCN(Cc4ccccc4)CC3)c2c1`, the inhibition is reported as active: 51.9%.
For `COc1cccc(-c2noc(C3CCCN(C(=O)c4ccc(F)cc4F)C3)n2)c1` (centres undefined), the inhibition was active: 32.7%.
With `Cc1ccc(S(=O)(=O)N(C)c2ccc(C(=O)Nc3cccnc3)cc2)cc1` the inhibition was active: 35%.
For `COc1ccc(C)c(NC(=O)NCCc2cnc[nH]2)c1`, the inhibition was active: 37.7%.

Point of comparison: `CCOc1ccc(C(=O)c2oc3ccccc3c2NC(=O)c2cc(=O)c3ccc(C)cc3o2)cc1`, inhibition 12.6%. Against it:
- CCCCN(CC)CCNC(=O)c1nn(C)c2c1CS(=O)(=O)c1ccccc1-2 — lower, 11.9%
- Cc1ccc(NC(=O)CSc2nnc(NC(=O)NC3CCCCC3)s2)cc1 — higher, 27.7%
- CCc1ccc(NC(=O)CCCc2nnc3n(C(C)CC)c(=O)c4sccc4n23)cc1 (centres undefined) — lower, -3.83%
- COc1ccccc1C(=O)Nc1ccc(S(=O)(=O)Nc2nc(C)cc(C)n2)cc1 — lower, 4.13%
- COc1ccc(NC(=O)c2ccco2)cc1NC(=O)c1cc(Br)ccc1Cl — lower, 8.41%
- CCCCN(CC)C(=O)CSc1nc2ccccc2c(=O)n1Cc1ccco1 — lower, -5.8%
- COc1cc(-c2nc(-c3ccccc3)c(-c3ccc(Br)cc3)[nH]2)cc(OC)c1O — lower, -16.9%
- COc1ccc(NC(=O)C2CCN(c3ccc(Sc4ccc(C)cc4)nn3)CC2)cc1 — lower, -6.1%
- COC(=O)c1cc2sc(Cl)cc2n1Cc1nc(-c2ccccc2C)oc1C — lower, 8.29%
- CC1CN(C(=O)N2CCC(C(=O)NCc3cccs3)CC2)c2ccccc2O1 (centres undefined) — lower, -9.32%
- COc1ccc(Nc2oc(/C=C/c3cc(OC)c(OC)c(OC)c3)nc2C#N)cc1 — higher, 14.3%
- CC1CCN(S(=O)(=O)c2ccc3c(c2)N(CC(=O)NC(C)(C)C)C(=O)CS3)CC1 — higher, 17%
- COc1cccc(CNC(=O)Cn2c(=O)nc(-c3ccccc3F)c3cc(Cl)ccc32)c1 — lower, 7.85%
- COc1cc2c(cc1OC)C(COc1ccccc1OC)N(C(=O)c1ccc(S(=O)(=O)N(C)C)cc1)CC2 (centres undefined) — lower, 3.26%
- Cc1ccc(Cl)cc1N1CCN(C(=O)COc2cc(=O)n(C)c3ccccc23)CC1 — lower, -17.4%
- COc1ccc(Nc2nc3c(S(=O)(=O)c4ccc(C)cc4)nnn3c3ccsc23)cc1Cl — lower, -5.13%
- Cc1ccc(/C=C/c2onc(C)c2S(=O)(=O)N2CCC(C(=O)N3CCN(c4cc(C)ccc4C)CC3)CC2)cc1 — lower, -0.932%
- CC(=O)N1CCc2c(sc3c2c(=O)n(Cc2ccccc2)c(=O)n3Cc2ccccc2Cl)C1 — lower, -23.8%
- CCOc1ccc(C(=O)NCC(c2ccc3c(c2)OCO3)N2CCN(C)CC2)cc1 (centres undefined) — lower, 2.84%
- CCOc1ccc2nc(Cl)c(C3CC(c4ccccc4)=NN3C(=O)CCC(=O)O)cc2c1 (centres undefined) — lower, -5.86%
- Cc1ccc(-c2nnc(Nc3ccc(O)cc3)c3ccccc23)cc1S(=O)(=O)NC(C)(C)CO — lower, -16.7%
- CCOc1ccc(S(=O)(=O)N(CC(=O)Nc2ccc(OC)c(Cl)c2)c2ccccc2)cc1 — lower, -16.9%
- Cc1nn2c(C)c(C(=O)NCc3cccc(Br)c3)cnc2c1-c1ccccc1 — lower, 9.89%
- COc1ccc(Cl)cc1NC(=O)c1noc2c1CCc1ccccc1-2 — higher, 17%
- COc1ccc(Nc2cc(C)c3cc(NC(=O)COc4cccc(C)c4)ccc3n2)cc1 — lower, -12.7%
- COc1ccc2nc(NC(=O)c3nc(S(=O)(=O)Cc4ccc(C)cc4)ncc3Cl)sc2c1 — lower, -13.9%
- Cc1cccc(N2CCN(C(=O)CCNS(=O)(=O)c3ccc4c(c3)CCN4C(=O)C3CC3)CC2)c1C — lower, 4.19%
- COc1cccc(CNC(=O)C2=C(C)C(=O)OC23CCCCCC3)c1 — lower, 0.739%
- CCOc1ccccc1NC(=O)CN(c1cc(C)cc(C)c1)S(=O)(=O)c1c(C)nn(C)c1C — lower, 4.4%
- Cc1cc(C)c(Cn2cnc3nc4c(cc3c2=O)CCCC4)c(C)c1 — lower, -19.7%
- CCOc1cc(C(=O)Nc2ccc3nc(N4CCN(C)CC4)cc(C)c3c2)cc(OCC)c1OCC — lower, 2.35%
- CCc1cccc(NC(=O)CN(C)S(=O)(=O)c2ccc3c(c2)n(C)c(=O)c(=O)n3C)c1 — lower, 2.42%
- COc1ccc(-c2noc(COc3ccc(C)cc3C)n2)cc1OC — higher, 14.2%
- COc1ccc(S(=O)(=O)N(CC(=O)Nc2ccc(C)cc2)c2ccc(C)cc2)cc1OC — lower, -2.85%
- CCOC(=O)c1scc(-c2ccc(C)cc2)c1S(=O)(=O)N1CCN(c2ccccc2)CC1 — lower, -4.51%
- Cn1c(C(=O)NCc2ccccc2F)cc2cc(S(=O)(=O)N3CCCCC3)ccc21 — lower, -18.9%
- COC(=O)c1sc2cccc(F)c2c1S(=O)(=O)NCc1ccccc1Cl — lower, 1.08%
- COc1ccc(NC(=O)CN(C)S(=O)(=O)c2ccc3nc(C)sc3c2)cc1Cl — lower, -0.785%
- CCCOc1ccc(C(=O)Nc2ccc(NC(=O)c3ccc(Br)cc3)cc2)cc1 — higher, 12.7%
- Cc1cccc(Nc2nnc(-c3ccc(C)c(S(=O)(=O)N4CCOCC4)c3)c3ccccc23)c1 — lower, 8.47%
- COc1ccc(CCNCc2c(C(=O)O)c(C)n(Cc3cccc(C)c3)c2C)cc1OC — lower, -4.35%
- Cn1c(Oc2cccc(Cl)c2)nc2c1c(=O)n(Cc1ccccc1Cl)c(=O)n2C — lower, -1.09%
- Cc1ccc(NS(=O)(=O)c2ccc3[nH]c4c(c3c2)CCCCCC4)cc1C — lower, 10.6%
